Experimental data published in the GPR68 mutational scans of Howard et al. (2025).

B1: GPR68, Q15743 (parent)
chain: MGNITADNSSMSCTIDHTIHQTLAPVVYVTVLVVGFPANCLSLYFGYLQIKARNELGVYLCNLTVADLFYICSLPFWLQYVLQHDNWSHGDLSCQVCGILLYENIYISVGFLCCISVDRYLAVAHPFRFHQFRTLKAAVGVSVVIWAKELLTSIYFLMHEEVIEDENQHRVCFEHYPIQAWQRAINYYRFLVGFLFPICLLLASYQGILRAVRRSHGTQKSRKDQIQRLVLSTVVIFLACFLPYHVLLLVRSVWEASCDFAKGVFNAYHFSLLLTSFNCVADPVLYCFVSETTHRDLARLRGACLAFLTCSRTGRAREAYPLGAPEASGKSGAQGEEPELLTKLHPAFQTPNSPGSGGFPTGRLA

What was measured:
[1] = variants of: B1; assay: cAMP reporter score (Enrich2 score, wild type = 0); higher = more signal; HEK293T, FACS bins
[2] = variants of: B1; assay: surface expression score (Enrich2 score, wild type = 0); higher = more signal; HEK293T, FACS bins

Variant	cAMP reporter score ([1]; pH 5.5)	cAMP reporter score ([1]; pH 6)	cAMP reporter score ([1]; pH 6, modulator: ogerin)	cAMP reporter score ([1]; pH 6.5, modulator: ogerin)	surface expression score [2]
V141_S142insG	-1.16	-0.727	-0.15	0.098	-1.86
V141_S142insGSG	-2.24	-0.79	-1.91	-1.05	-2.19
V141_V143del	-1.43	-0.875	-1.07	-0.215	-2.64
V141del	-0.857		-0.674	-0.431	
S142_V143del	-2.14			-0.748	-3.13
S142del	-1.8	-0.845	-1.64	-0.661	-2.25
V143_V144del	-1.15	-0.533	-0.887	-0.704	-2.78
V143_V144insGSG	-1.39	-1.51	-1.56	-0.684	-2.15
V143del	-1.34	-0.85	-1.89	-1.02	-1.98
V144_I145insG	-0.585	0.094	-2.4	-1.43	-2.07
I145A	-2.38		-0.668	0.188	-1.86
I145C	-0.452	-3.02			-3.03
I145D	-0.954	-0.98	-0.532	-0.184	-2.94
I145E	-0.016	-0.565			
I145F	-0.817	-0.075	-1.25	-0.467	-2.41
I145G	-1.66	-1.42		-0.973	-2.21
I145H	-1.35	-0.912	-2.12	-1.29	-1.91

Variant	cAMP reporter score ([1]; pH 5.5)	cAMP reporter score ([1]; pH 6)	cAMP reporter score ([1]; pH 6, modulator: ogerin)	cAMP reporter score ([1]; pH 6.5, modulator: ogerin)	surface expression score [2]
I145K	-0.848	-0.629	-1.95	-1.31	-2.29
I145L	1.47	-0.777	-0.604	-0.894	-1.56
I145M	-0.06	1.03	-0.171	-0.687	-2.63
I145N	-0.537			-0.206	-2.08
I145P	0.246			-1.66	-2.89
I145Q	-0.502	-0.545	-1.16	-1.27	-1.75
I145R	-0.423				-2.19
I145S	-0.139			-1.32	-0.43
I145T	-0.6		-2.52	-1.17	-1.13
I145V	-0.691	-0.621	-0.555	-0.746	-1.18
I145W	-1.18	-1.4	-0.909	-0.667	-2.14
I145Y	-1.39	-1.4	-1.19	-0.352	-1.75
I145_A147del	-0.853	-2.13	-1.72	-0.494	-2.92
I145_W146insG	-1.53	-0.553	-2.07	-0.868	-2.33
W146C	-1.45	-1.18	-2.06	-1.18	-2.34
W146F	-1.13		-1.78	-1.16	-2.29
W146G	-1.17	-1.36	-2.5	-1.09	-1.62

Scores with a large standard error are left out. Two further conditions of the source, in which the scores hardly spread, are not listed. Names with del lack the residues named; names with ins carry added residues between the positions named. For some of these results: The concentration of ogerin is not given here.
